This test deals with chronic morphine-dependent mice. Briefly: naloxone-precipitated withdrawal hyperalgesia in chronic morphine-dependent mice (tail-flick). Conditions: NLX 10 μg/kg on Day 6 after morphine 10 mg/kg b.i.d. for 5 days, FIG. 9.

Each structure is given as a SMILES string.

`C=CCN1CC[C@]23c4c5ccc(O)c4O[C@H]2C(=O)CC[C@@]3(O)[C@H]1C5` [naloxone]: the “effect on tail-flick latencies, acute naloxone in chronic morphine-dependent mice” value is reported as “evokes long-lasting hyperalgesia”.

The values are drawn from patent publication US20100203084A1, “METHOD FOR TREATING PAIN OR OPIOID DEPENDENCE USING A SPECIFIC TYPE OF NON-OPIOID AGENT IN COMBINATION WITH A SELECTIVE EXCITATORY-OPIOID-RECEPTOR INACTIVATOR” (priority 2006, published 2010).
